Laboratory results as given in the supplement of paper PMC4967469.
A lower IC50 marks a more sensitive line; a fit beyond the top or the lowest dose is shown as a bound at that dose. AUC sums up the same curve from the lowest dose to the 256-fold higher top dose; the more sensitive the line, the further below 1. A top dose marked as inferred is not printed in the source and was worked back from the curve model.

How the values were obtained:
Test in all cases: Viability of human cancer cell lines after 72 h of drug (GDSC screen)
Lenalidomide = compound: Nc1cccc2c1CN(C1CCC(=O)NC1=O)C2=O [Lenalidomide]; details: top dose 5 µM; top dose inferred
Description: (§1)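 Human cancer cell lines in 384-well plates, medium with 10% serum, drug for 72 h over a 256-fold dose range (nine 2-fold or five 4-fold steps up to the top dose). Adherent lines were fixed and stained with the nucleic acid dye Syto60, suspension lines read with resazurin; signal relative to control wells, capped at 0 and 100%. One two-parameter sigmoid per drug and line, fitted in a mixed model over all curves with the slope shared within a line.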

SGC0946 = compound: CC(C)N(CCCNC(=O)Nc1ccc(C(C)(C)C)cc1)C[C@H]1O[C@@H](n2cc(Br)c3c(N)ncnc32)[C@H](O)[C@@H]1O [SGC0946]; details: top dose 0.5 µM; top dose inferred
Description: as §1

Bryostatin 1 = compound: CCC/C=C/C=C/C(=O)O[C@H]1/C(=C/C(=O)OC)C[C@H]2C[C@H]([C@@H](C)O)OC(=O)C[C@H](O)C[C@@H]3C[C@H](OC(C)=O)C(C)(C)[C@](O)(C[C@@H]4C/C(=C/C(=O)OC)C[C@H](/C=C/C(C)(C)[C@]1(O)O2)O4)O3 [Bryostatin 1]; details: top dose 0.008 µM; top dose inferred
Description: as §1

GW-2580 = compound: COc1ccc(COc2ccc(Cc3cnc(N)nc3N)cc2OC)cc1 [GW-2580]; details: top dose 20 µM; top dose inferred
Description: as §1

| Cell Line | AUC (Lenalidomide) | IC50 (Lenalidomide) [nM] | AUC (SGC0946) | IC50 (SGC0946) [nM] | AUC (Bryostatin 1) | IC50 (Bryostatin 1) [nM] | AUC (GW-2580) | IC50 (GW-2580) [nM] |
| --- | --- | --- | --- | --- | --- | --- | --- | --- |
| BICR78 (head and neck, adherent) | 0.964 | > 5000 | 0.98 | > 500 | 0.983 | > 8 | 0.978 | > 20000 |
| BT-20 (breast, adherent) | 0.962 | > 5000 | 0.977 | > 500 | 0.971 | > 8 | 0.974 | > 20000 |
| BT-483 (breast, adherent) | 0.978 | > 5000 | 0.965 | > 500 | 0.974 | > 8 | 0.973 | > 20000 |
| Becker (glioma, adherent) | 0.952 | > 5000 | 0.977 | > 500 | 0.983 | > 8 | 0.972 | > 20000 |
| BxPC-3 (pancreas, adherent) | 0.984 | > 5000 | 0.969 | > 500 | 0.926 | > 8 | 0.975 | > 20000 |
| C3A (liver, adherent) | 0.988 | > 5000 | 0.987 | > 500 | 0.915 | > 8 | 0.988 | > 20000 |
| C32 (melanoma, adherent) | 0.961 | > 5000 | 0.979 | > 500 | 0.978 | > 8 | 0.985 | > 20000 |
| C-33-A (cervix, adherent) | 0.985 | > 5000 | 0.985 | > 500 | 0.979 | > 8 | 0.977 | > 20000 |
| CAKI-1 (kidney, adherent) | 0.974 | > 5000 | 0.971 | > 500 | 0.963 | > 8 | 0.963 | > 20000 |
| CAL-12T (non-small cell lung carcinoma, adherent) | 0.984 | > 5000 | 0.981 | > 500 | 0.932 | > 8 | 0.973 | > 20000 |
| CAL-27 (head and neck, adherent) | 0.975 | > 5000 | 0.984 | > 500 | 0.972 | > 8 | 0.984 | > 20000 |
| CAL-29 (bladder, adherent) | 0.981 | > 5000 | 0.973 | > 500 | 0.984 | > 8 | 0.982 | > 20000 |
| CAL-33 (head and neck, adherent) | 0.918 | > 5000 | 0.977 | > 500 | 0.965 | > 8 | 0.985 | > 20000 |
| CAL-39 (cervix, adherent) | 0.984 | > 5000 | 0.984 | > 500 | 0.984 | > 8 | 0.986 | > 20000 |
| CAL-51 (breast, adherent) | 0.991 | > 5000 | 0.99 | > 500 | 0.942 | > 8 | 0.987 | > 20000 |
| CAL-72 (osteosarcoma, adherent) | 0.98 | > 5000 | 0.982 | > 500 | 0.945 | > 8 | 0.967 | > 20000 |
| CAL-78 (chondrosarcoma, adherent) | 0.986 | > 5000 | 0.985 | > 500 | 0.964 | > 8 | 0.983 | > 20000 |
| CAL-85-1 (breast, adherent) | 0.944 | > 5000 | 0.974 | > 500 | 0.906 | > 8 | 0.976 | > 20000 |
| CAL-120 (breast, adherent) | 0.972 | > 5000 | 0.978 | > 500 | 0.976 | > 8 | 0.981 | > 20000 |
| CAS-1 (glioma, adherent) | 0.981 | > 5000 | 0.978 | > 500 | 0.889 | > 8 | 0.959 | > 20000 |
| CCF-STTG1 (glioma, adherent) | 0.988 | > 5000 | 0.983 | > 500 | 0.987 | > 8 | 0.988 | > 20000 |
| CCK-81 (large intestine, adherent) | 0.98 | > 5000 | 0.982 | > 500 | 0.989 | > 8 | 0.99 | > 20000 |
| CESS (acute myeloid leukaemia, suspension) | 0.99 | > 5000 | 0.988 | > 500 | 0.991 | > 8 | 0.991 | > 20000 |
| CFPAC-1 (pancreas, adherent) | 0.975 | > 5000 | 0.982 | > 500 | 0.971 | > 8 | 0.984 | > 20000 |

| Cell Line | AUC (Lenalidomide) | IC50 (Lenalidomide) [nM] | AUC (SGC0946) | IC50 (SGC0946) [nM] | AUC (Bryostatin 1) | IC50 (Bryostatin 1) [nM] | AUC (GW-2580) | IC50 (GW-2580) [nM] |
| --- | --- | --- | --- | --- | --- | --- | --- | --- |
| CGTH-W-1 (thyroid, adherent) | 0.979 | > 5000 | 0.981 | > 500 | 0.977 | > 8 | 0.984 | > 20000 |
| CHL-1 (melanoma, adherent) | 0.978 | > 5000 | 0.986 | > 500 | 0.967 | > 8 | 0.985 | > 20000 |
| CHP-212 (neuroblastoma, adherent) | 0.904 | > 5000 | 0.98 | > 500 | 0.947 | > 8 | 0.987 | > 20000 |
| CHSA0011 (chondrosarcoma, adherent) | 0.978 | > 5000 | 0.971 | > 500 | 0.98 | > 8 | 0.97 | > 20000 |
| CHSA0108 (chondrosarcoma, adherent) | 0.981 | > 5000 | 0.981 | > 500 | 0.98 | > 8 | 0.982 | > 20000 |
| CHSA8926 (chondrosarcoma, adherent) | 0.972 | > 5000 | 0.975 | > 500 | 0.953 | > 8 | 0.978 | > 20000 |
| CMK (acute myeloid leukaemia, suspension) | 0.991 | > 5000 | 0.99 | > 500 | 0.991 | > 8 | 0.991 | > 20000 |
| COLO-205 (large intestine, suspension) | 0.975 | > 5000 | 0.986 | > 500 | 0.968 | > 8 | 0.984 | > 20000 |
| COLO-668 (small cell lung carcinoma, adherent) | 0.975 | > 5000 | 0.988 | > 500 | 0.989 | > 8 | 0.978 | > 20000 |
| COLO-678 (large intestine, semi-adherent) | 0.983 | > 5000 | 0.983 | > 500 | 0.98 | > 8 | 0.984 | > 20000 |
| COLO-679 (melanoma, adherent) | 0.984 | > 5000 | 0.983 | > 500 | 0.983 | > 8 | 0.982 | > 20000 |
| COLO-680N (oesophagus, adherent) | 0.963 | > 5000 | 0.985 | > 500 | 0.973 | > 8 | 0.976 | > 20000 |
| COLO-783 (melanoma, adherent) | 0.984 | > 5000 | 0.974 | > 500 | 0.989 | > 8 | 0.99 | > 20000 |
| COLO-800 (melanoma, adherent) | 0.983 | > 5000 | 0.985 | > 500 | 0.988 | > 8 | 0.97 | > 20000 |
| COLO-824 (breast, adherent) | 0.985 | > 5000 | 0.985 | > 500 | 0.985 | > 8 | 0.988 | > 20000 |
| COR-L23 (large cell lung carcinoma, adherent) | 0.988 | > 5000 | 0.986 | > 500 | 0.967 | > 8 | 0.986 | > 20000 |
| COR-L88 (small cell lung carcinoma, adherent) | 0.975 | > 5000 | 0.984 | > 500 | 0.983 | > 8 | 0.951 | > 20000 |
| CP50-MEL-B (melanoma, adherent) | 0.988 | > 5000 | 0.973 | > 500 | 0.956 | > 8 | 0.988 | > 20000 |
| CP66-MEL (melanoma, adherent) | 0.982 | > 5000 | 0.984 | > 500 | 0.887 | > 8 | 0.979 | > 20000 |
| CPC-N (small cell lung carcinoma, suspension) | 0.883 | > 5000 | 0.973 | > 500 | 0.985 | > 8 | 0.974 | > 20000 |
| CS1 (bone, adherent) | 0.984 | > 5000 | 0.977 | > 500 | 0.982 | > 8 | 0.958 | > 20000 |
| CTB-1 (B-cell lymphoma, suspension) | 0.939 | > 5000 | 0.976 | > 500 | 0.977 | > 8 | 0.948 | > 20000 |
| CTV-1 (acute myeloid leukaemia, suspension) | 0.986 | > 5000 | 0.992 | > 500 | 0.992 | > 8 | 0.992 | > 20000 |
| CW-2 (large intestine, adherent) | 0.989 | > 5000 | 0.988 | > 500 | 0.989 | > 8 | 0.989 | > 20000 |
